This is an account of results in paper PMC10726135.

The other results are listed elsewhere or left out. At the low end of the ranking the order means little. The protein was read in a cell extract, so binding may be indirect.

The assay concerns the target T1, HNF4alpha8 (COS-7 nuclear extract) (UniProt P41235-5).
T1 sequence: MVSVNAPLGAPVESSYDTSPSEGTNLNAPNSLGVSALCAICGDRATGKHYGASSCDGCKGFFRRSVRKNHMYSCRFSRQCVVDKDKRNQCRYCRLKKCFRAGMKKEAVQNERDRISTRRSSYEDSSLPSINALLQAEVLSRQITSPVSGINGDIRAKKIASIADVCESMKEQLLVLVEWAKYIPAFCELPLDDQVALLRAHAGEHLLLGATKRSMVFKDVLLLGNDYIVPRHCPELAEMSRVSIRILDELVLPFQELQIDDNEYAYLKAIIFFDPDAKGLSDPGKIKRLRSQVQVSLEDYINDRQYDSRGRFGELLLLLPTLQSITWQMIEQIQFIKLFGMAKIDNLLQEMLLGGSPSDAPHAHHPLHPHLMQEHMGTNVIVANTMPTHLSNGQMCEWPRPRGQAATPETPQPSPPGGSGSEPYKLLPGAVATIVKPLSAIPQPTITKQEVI
The assay can be described thus: protein-binding microarray. To be noted: COS-7 nuclear extract on double-stranded Agilent 4x180k PBM; binding buffer, salt, pH and temperature not given; high values mean tight binding; double strand, one strand shown; sequences stand for … in …GCCTAGGGAGATTAGAGTATCGGTCGA
For GTGCTGGTACATAGCAGGGGTTAGGTAAAC, the binding signal (log2 normalized intensity) is -0.36.
With AAGCCCCTTGGGACAGCTGGCCTCATGCCT, the binding signal (log2 normalized intensity) is -1.33.
Under GACAGGATGTTCTACACTGCTTACCCTGCA stands -1.36; under GTTTTTTACTGCTCCTGCTGGCTAGCCACA, -1.31; under CCATCCCGTGGACTCTGCCTGCCCTCTCCA, 3.19.
Under CCACCAAATCTTACCTAAGGAAGTTAACCC stands 1.95; under CACATTGTTAGCAGAAACCATCTGGCTTGG, -1.31.
Take TTCTGGTCAAAGGTCAATGAAGCTCTTGCT: the binding signal (log2 normalized intensity) was found to be 6.15.
Turning to CATATGCATTCCTGCCTCAGGCCGACCCCT, the binding signal (log2 normalized intensity) stood at 4.15.
Under CCAGAGCCTCCAAAGTCCGCTTGCCTGAGG stands -0.939; under CTTTGCCAACCTGGCCTGTTTGATCTGGTT, 0.767.
As for TCATTCTTTAAGTGTGGGGTGACTGACTTA, the figure is 1.61.
As for TGGGCAGCTTGTGTGCGTTTCCCAGATATC, the figure is 0.471; as for AGCAGAGCTGCTGGCAGGAATTTTAAAAGT, -1.31.
For the sequence AGGAGATAATAATACTTATCTTGCAGGGTC, the binding signal (log2 normalized intensity) came out at 2.1.
Under GAACCAGGAATCCTAGGGAAGAAACATTCT stands -1.29; under GGGGGCCTCTTTTAAGAAGCCAGTGTCTAT, -0.293.
CATGAAATTGAGATAAACATGAAACAGTCA: the binding signal (log2 normalized intensity) is -0.23.
As for GAATGTTTTATGTGCTCCATCAGTGGTAAA, the binding signal (log2 normalized intensity) turned out to be 1.22.
As for AAGTGTTCAGCAAATACTAATTCTCCCCCA, the figure is 4.12; as for GGCCAAAGAGCAAAGGACCAAAAGATATTT, -0.232.
As for CCCTGCTGTGTCACGTACCGGCTAGACAAA, the figure is -1.23.
Under TAAACAAAGATACTCTCATCACTTAGGATA stands -1.37; under AGCCCAACACGGGCGAAAAAGACGCGGTCT, -1.48.
Consider TTTTGCCAAAGAGGTCTTATGCTCACATAC, for which the binding signal (log2 normalized intensity) was -0.886.
Consider TTCTCAACAGACCCCTGAATTGGTCATAAT, for which the binding signal (log2 normalized intensity) stood at 3.12.
TCAAAAGGACTCCCAGAGCATACATGCAGC: the binding signal (log2 normalized intensity) was -1.37.
As to GCGCATCGGGCGCCAGCGCCCCCGTGTGGC, the binding signal (log2 normalized intensity) is 1.2.
Take GCAGCAAGGCCTGAATGAGCTCTGGGGTCC: the binding signal (log2 normalized intensity) was found to be 0.921.
As for GCCAATTCAGCAAACAAAGGCACTTCTCTC, the figure is -1.27; as for GCTGAGGCAGAGTTGTTTGCAGAGGGAAAG, -1.32; as for CCGCTGCTGTCTCGGGGCCAGGTGGGCTGC, -1.1.
As for ACCTCCAAGAGGTTTTAGGCTATCAGACAG, the figure is -1.24; as for TGATTTGTATGATCTTGGGTATATCCTTTA, 1.47.
As for CAAATGAATAATCCCCTCCTGGACTTTGGT, the figure is 5.55; as for TAGAAGCAGTGGGACAAAGGTCACAGGAAA, 5.05; as for GGCTTATTTTAGGAGCCTCCAATCAGGACA, -1.45.
Consider GATGGCTATGAAGAAAAACAAGTGGAGTAG, for which the binding signal (log2 normalized intensity) was -1.28.
As for TGGCTGGGCCCTGACCTCAAGTGACCTTTG, the figure is 7.77; as for TAGAAGAAAGTCTTGATAAGAAACCCAAGA, -1.31.
Take GATGATTCTAAAGGCACAATCAGGGCTAAA: the binding signal (log2 normalized intensity) is -1.35.
With TTAACCTTTGATCTGTAAGCTCTCTGCTTA, the binding signal (log2 normalized intensity) came out at 4.45.
For the sequence CTTTGGACTTGAATTATCCTTATGGTCTCT, the binding signal (log2 normalized intensity) turned out to be 0.611.
On to TCTGAGGGCTACTATCTGAAGACTTCCTCT, for which the binding signal (log2 normalized intensity) is -1.2.
Under GGACCTGAGGCTTTTGAGTCAATAATGGAC stands 1.38; under TGAACTTCATGTGTGGTGCAGATTCCACAC, 1.2.
As for CCTGCATATCCTGACTGCTGACCTTTAAGC, the figure is 5.56.
As for GGCGGGGCGGGGCAGCAGGGAAGAGCCGGC, the figure is -1.34.
Consider GTACCTGCGACTGAGCCCTAAGAAATCTCC, for which the binding signal (log2 normalized intensity) is -1.32.
CAGACTGCTGTGTTACTAGAGCCAAGGAAG: the binding signal (log2 normalized intensity) was -1.04.
Under GAGGCTTCTGGCCAGGCAGAGCAGGTTCTC stands -1.37; under AAGTACATTAATATACTGTGTATACAAAGA, 1.12; under TCTCCTGTTCTCTTTATTTATTAACTGGAG, 1.04.
Consider CTGGAACTCAAAGGTCAAATGACAGAAGCA, for which the binding signal (log2 normalized intensity) is 3.85.
As to CTCAGAATCTGCCGATCACTGGCCCAGCTG, the binding signal (log2 normalized intensity) was -1.31.
As for AAGGGTCTCCTGGAATGCAAGACCTCAGCC, the binding signal (log2 normalized intensity) is -1.28.
Regarding GCTAAGTGGAGGATTTGGGTGATGTTTGGT, the binding signal (log2 normalized intensity) was found to be 1.4.
Under CACTCTTGCTATGCAAACAGACTGGCGGCG stands -1.39; under CACCTGCCTGAACAAGTCCAGTGACGGGTA, -0.921.
Under TCCAGAAAAGACCAAAAAGGCTAACTTACC stands -1.23.
Under GAGCAGCTCTGTATTGAGATAAGCAAGACT stands -1.34; under GTCCTGCTGGTTTGCCATTTGGAGAGAGTT, 1.13.
For the sequence TAGCACCTTCCAGCAGCAGGCCTGGGGGCA, the binding signal (log2 normalized intensity) is 0.406.
With TGTTGCAAGCAATGGAGAGGATTTTGGAAT, the binding signal (log2 normalized intensity) came out at 0.887.
Under TTTGCCAAAGCATAGCAAGAGTGACCTTTG stands 7.18; under ATTCCCCGACTCCTGGGTGTGAGATAAGGC, 0.0557.
Under GCAGGAGGAGGAGCCAGTGAAGACTGAAAA stands -1.44.
As for TGCCTTTCCCTTATCAGGACTTTGTGATTA, the figure is 3.28.
For the sequence ATTCTCCAGTCCGAAGGTCCACCCGTCCGC, the binding signal (log2 normalized intensity) stood at 2.62.
Under ACATGGTCCAGTCACAGCAAAAGTAGCCTG stands -1.22.
As for ATTATCCCCCTATCCCAAGACATCAATTAA, the figure is 3.96; as for ATCCCACCAAAACCAAGATAGTGACGGAGG, -1.37.
